The values that follow come from PubChem BioAssay (NCI).

Values joined by “and” are separate entries in the source; they are usually repeats but may differ in a detail not shown here. Equal values may be shown once.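 Cultured in 96-well plates, cells were exposed to test compound for 48 hours across five concentrations. Abbreviation: GI50, concentration required for 50% inhibition of growth. Definition used: TGI = concentration required for complete inhibition of growth.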

The subject of the experiment is NCI-H322M lung. Briefly: NCI tumour cell line growth inhibition, 48 h.
For `Cc1cc(C(=O)c2ccccc2)c(C)c2c1[nH]c1ccc(Cl)cc12`, the GI50 was 0.188 µM and the TGI is 27 µM.

`CCOC(=O)c1c(-c2cccc3ccccc23)c(C#N)c(=S)n(C2OC(COC(C)=O)C(OC(C)=O)C(OC(C)=O)C2OC(C)=O)c1C` (centres undefined) yielded a TGI of over 100 µM.

As to `COC(=O)c1c(O)ccc2c1c1c(n2Cc2ccccc2)C(=O)c2ccccc2C1`, the TGI is over 100 µM.

As for `O=C1/C(=C/c2ccc(Br)cc2)CCC/C1=C\c1ccc(Br)cc1`, the TGI was 79.8 µM.

On to `CCCCCn1c(C)cc(/C=C\c2ccc3cc(C)ccc3[n+]2C)c1C`, for which the GI50 is 0.436 µM and the TGI was found to be 1.67 µM.

As for `O=C1C(Cl)=C(Nc2cccc(C(F)(F)F)c2)C(=O)N1Cc1ccc(Cl)cc1`, the GI50 was 1.68 µM and the TGI is 11.7 µM.

Regarding `O=C(CSc1nc2ccccc2c(=O)n1-c1ccccc1)N=Nc1c(O)[nH]c2ccc(F)cc12`, the TGI was found to be 4.82 µM.

Take `O=C(NC(=S)Nc1cc(Cl)ccc1O)c1cccc(Br)c1`: the GI50 is 6.3 µM and the TGI was over 100 µM.

As to `Cc1ccc([N+](=O)[O-])c2c(NCC(O)CO)ccnc12` (centres undefined), the TGI is over 100 µM.

For the compound `C=C1CN(C2=NCCO2)C1`, the TGI is over 100 µM.

The compound `Cc1ccc(C(=O)CC2=Nc3nnc(CCCCCCCc4nnc5n4C(=O)C(CC(=O)c4ccc(C)cc4)=N5)n3C2=O)cc1` showed a TGI of over 100 µM.

`CC(=O)N/C(=C\c1ccc(Cc2nc3c([nH]2)C(=O)c2ccccc2C3=O)cc1)c1nc2c([nH]1)C(=O)c1ccccc1C2=O` registered a TGI of over 100 µM.

Turning to `C=C(C)CNC(=S)N(N)c1ccc2ccccc2c1`, the TGI is over 100 µM.

`Cc1c(C(=O)O)n2cnnc2c2ccccc12`: the TGI was over 100 µM.

For the compound `C[C@@H]1COCCN1c1cc(C2(O)C[C@H]3CC[C@@H](C2)O3)c2cnn(-c3ccn[nH]3)c2n1` (some centres undefined), the GI50 is 0.0315 µM and the TGI was 0.678 µM.

For the compound `COc1cc(Br)c(CC2C3=C(CCN2C(=O)C2CCC2)CC(=O)CC3)cc1O` (centres undefined), the TGI was over 100 µM.

Regarding `Oc1cc(Br)cc2cc(Cl)cnc12`, the TGI was over 100 µM.

As to `O=c1ccc2nc(-c3ccccn3)nn(-c3ccccc3)c-2c1`, the GI50 is 16.3 µM and the TGI amounted to 30.2 µM.

With `CCC[CH2][Sn]1([CH2]CCC)[O]CC(C)[O]1` (centres undefined), the GI50 is 3.37 µM and the TGI came to 12.5 µM.

With `CC(=O)[CH-]C(C)=O.CC(=O)[CH-]C(C)=O.CC[O-].CC[O-].[Ti+4]`, the GI50 was over 100 µM and the TGI is over 100 µM.

Take `C=C1C(=O)O[C@H]2[C@H]1CC/C(COC(=O)NCc1ccc(Cn3c(=O)sn(-c4ccccc4)c3=O)cc1)=C\CC[C@@]1(C)O[C@@H]21`: the GI50 is 12.3 µM and the TGI amounted to 24.7 µM.

Compound `C/C(=N\NC(=S)N(C)C)c1ccccn1` had a TGI of 13.7 µM.

Turning to `CC1(C)C(=O)/C(=C\c2cccnc2)C[C@]2(C)[C@H]3CC[C@@H]4[C@@H](C(=O)/C=C/c5ccncc5)CC[C@@]4(C)[C@]3(C)CC[C@@H]12`, the GI50 was 2.58 µM and the TGI was 7.42 µM.

For `O=C(CCCCC(=O)N/N=C\c1ccccc1O)N/N=C\c1ccccc1O`, the GI50 was 2.3 µM and the TGI turned out to be 32.8 µM.

`Cn1c(=O)c2/c(n(C)c1=O)=N\C=c1\c(=O)n(C)c(=O)n(C)\c1=N\C=2` had a TGI of over 100 µM.

`CCCCCCCCCCCCCCCC1=NC(C)(C)CN1C(C)C`: the GI50 is 1.54 µM and the TGI was determined as 2.9 µM.

Turning to `O=C(NC(=O)c1ccccc1[N+](=O)[O-])Nc1ccc(Oc2ncc(Cl)cn2)c(C(F)(F)F)c1`, the TGI was over 83.8 µM.

On to `COC(=O)c1nn(C(=N)c2ccc(Cl)cc2)c2c1CCC2`, for which the TGI was over 100 µM.

Take `Cc1ccc(Sc2cc3c(oc2=O)-c2ccccc2OC3O)cc1` (centres undefined): the GI50 is 25.1 µM and the TGI stood at 53.3 µM.

In the case of `COc1cc(-c2csc(NC(=O)Nc3cc(Cl)cc(Cl)c3)n2)cc(OC)c1OC`, the GI50 was 1.73 µM and the TGI amounted to 3.77 µM.

In turn, `CC1(C)CC(N(C(=O)/C=C/c2ccc([N+](=O)[O-])o2)C2CCCCC2)CC(C)(C)N1` showed a TGI of 27.4 µM.

Consider `O=C1C(=Cc2ccc(Cl)c(Cl)c2)C([O-])=C([P+](c2ccccc2)(c2ccccc2)c2ccccc2)C([O-])=C1[P+](c1ccccc1)(c1ccccc1)c1ccccc1`, for which the TGI was 11.6 µM.

Take `Nc1c(C(=O)Nc2cccc(Cl)c2Cl)sc2nc3c(cc12)C(=O)CCC3`: the GI50 was 60.6 µM and the TGI is over 100 µM.

For `O=[N+]([O-])c1cccc2nccc(NCCCO)c12`, the TGI was found to be 35 µM.

For `CC1=NN(c2nc(N)nc(/C=C\c3ccc([N+](=O)[O-])s3)n2)C(C)(C)C1`, the GI50 is over 100 µM and the TGI is over 100 µM.

As for `O=C(CCc1ccc(O)cc1)N/N=C/c1cc(Br)ccc1O`, the GI50 was 2.91 µM and the TGI was 58.5 µM.

Regarding `C/C=C(/C)C(=O)O[C@H]1[C@H](O)CC(c2ccc3c(c2O)C(O)=C2C(=O)C4(OC)C(O)=C(C(N)=O)C(=O)[C@H](CC(=O)c5ccccc5O)C4CC2[C@@]3(C)OC)O[C@@H]1C` (some centres undefined), the TGI is 5.51 µM and 3.17 µM.

Turning to `NC(N)=NCCCC(NC(=O)OCCCCn1ccc(N)nc1=O)C(=O)O` (centres undefined), the TGI was over 100 µM.

On to `CCN(CC)CC(=N)N(CC)c1ccccc1`, for which the TGI was over 100 µM.

Compound `CC1=NN(c2nc(N)nc(CF)n2)C(C)(C)C1` had a TGI of over 100 µM.

For the compound `CCN(CC)C(=S)[S][Bi]([S]C(=S)N(CC)CC)[S]C(=S)N(CC)CC`, the GI50 is 1.75 µM and the TGI came out at 3.14 µM.

`C=CCC(C(=O)Nc1cccc2[nH]cnc12)C(=O)OCC` (centres undefined) displayed a TGI of over 100 µM.

Compound `N#CCC(=O)N1CCCCCCC1` had a TGI of over 100 µM.

As for `CCOC(=O)/C=C(\C(=O)OCC)n1ccc(=O)[nH]c1=O`, the TGI is 98.2 µM.

Regarding `NC(CSSCC(N)Cc1ccccc1)Cc1ccccc1` (centres undefined), the TGI was over 100 µM.

For `Nc1ncc(-c2cccc(S(N)(=O)=O)c2)c2scc(-c3ccc(F)c(Cl)c3)c12`, the GI50 is 8.8 µM and the TGI was over 25 µM.

Regarding `Cn1cccc1/C=C/c1cc(Br)c(/C=C/c2cccn2C)cc1Br`, the TGI was over 100 µM.

In the case of `O=c1oc2c(C(F)(F)F)cccc2cc1-c1csc(Nc2ccc(OCCF)cc2)n1`, the GI50 was 0.172 µM and the TGI is over 100 µM.

For the compound `COc1ccc(-c2nn(-c3ccc(NC(=O)Nc4ccc(Cl)c(C(F)(F)F)c4)cc3)cc2-c2ccncc2)cc1Cl`, the GI50 was 3.05 µM and the TGI was determined as 63.7 µM.

`CC(=O)/C(=C/N1CCNC1=S)C(=O)Nc1ccccc1C` returned a TGI of over 100 µM.

On to `Cc1ccc(CCC(=O)C(=O)O)s1`, for which the TGI was over 100 µM.

Consider `NC(=S)NN=C1CSSC1`, for which the GI50 was 2.68 µM and the TGI came to 38.7 µM.

`O=C1CC2CCC(C1)S2=O` (centres undefined) had a TGI of over 100 µM.

Take `COC(=O)C1=C(C(=O)OC)SC2(S1)C(C(=O)OC)=C(C(=O)OC)Sc1c2ssc1=NC(C)(C)C`: the TGI came to 17.5 µM.

`CCOC(=O)C(NC(=O)OC(C)(C)C)C(=O)OCC` gave a TGI of over 100 µM.

The compound `O=C(CCC(=O)C1CCC/C1=N/O)Nc1ccc(Cl)cc1` (centres undefined) registered a TGI of over 100 µM.

`COc1cccc2c1n([O-])c1cccc(OC)c1[n+]2=O`: the GI50 is 31.6 µM and the TGI is over 100 µM.

Compound `CCN(CC)CCNC(=O)c1cccc2nc3ccccc3nc12` had a TGI of 35.1 µM.

For `Brc1ccc2c(-c3csc(-c4c[nH]c5ccccc45)n3)c[nH]c2c1`, the TGI came out at 38.3 µM.

For `CN1CCN(C2=CC(=O)c3c(O)ccc(O)c3C2=O)CC1`, the TGI came out at 2.88 µM.

Take `COc1ccc(Sc2ccccc2N)cc1`: the TGI is over 100 µM.

In turn, `CC1(C)CCc2c(c(N=Nc3ccc(F)cc3)c3ccccc3c2O)O1` came in with a TGI of over 100 µM.

`N#CC(C#N)=C1C(=O)NC(N)=C1C#N` yielded a TGI of over 100 µM.

Compound `CCOc1ccc2c(c1)c(=O)c1c(NCCN(CC)CC)ccc3nnn2c31` had a TGI of 33.3 µM.

On to `COC1OC2=CCC3C(=O)NC(=O)C3C2[C@H](OCc2ccccc2)C1OCc1ccccc1` (some centres undefined), for which the TGI worked out at 30.4 µM.

Consider `CCSc1ccc(C2C(Br)C(=O)N2c2cc(OC)c(OC)c(OC)c2)cc1` (centres undefined), for which the GI50 was 7.38 µM and the TGI is over 100 µM.

Compound `O=NN(CCCl)C(=O)NC1CCC(CC2CCC(NC(=O)N(CCCl)N=O)CC2)CC1` (centres undefined) came in with a TGI of over 31.6 µM.

In the case of `O=C(O)C(Oc1nc(=S)[nH]c(=S)[nH]1)(c1ccc(Cl)cc1)c1ccc(Cl)cc1`, the TGI was over 100 µM.

Take `N.N.O=P([O-])([O-])C1(P(=O)([O-])[O-])CCCCCN1.[Pt+2]`: the GI50 was over 100 µM and the TGI is over 100 µM.

Take `C[C@]12CCC(=O)C=C1CC[C@@H]1C2CC[C@]2(C)c3nn(-c4ccccc4)nc3CC12` (some centres undefined): the TGI was over 100 µM.

Take `COc1cc(NC(=O)C2=C(N3CCOCC3)/C(=C/c3ccc(Cl)cc3)CC2)cc(OC)c1OC`: the GI50 is over 100 µM and the TGI was over 100 µM.

Turning to `Cc1ccc(-n2cc([Si](C)(C)C)nn2)s1`, the TGI was over 100 µM.

On to `COc1ccc(N2C(=O)C3c4[nH]c5ccccc5c4C4CCCCC4C3C2=O)cc1` (centres undefined), for which the TGI is 79.5 µM.

As to `Cc1cccc2c(O)cc(=O)oc12`, the TGI is over 100 µM.

Take `COc1ccc2c(c1)OC[C@@H]1c3cc(O)c(OCc4ccccc4)cc3O[C@H]21`: the TGI is over 100 µM.

`Cc1cc(I)cc(CN(C)CCCN2CCN(C)CC2)c1O`: the GI50 is 53.6 µM and the TGI was over 100 µM.

For the compound `COc1c(B(O)O)cc(F)cc1-c1nc2ccc3[nH]ncc3c2c2c1CCCC2`, the GI50 was 2.15 µM and the TGI came to 8.96 µM.

The compound `COc1ccc(C(=O)/C=C/c2cc(O)c(O)cc2F)c(OC)c1` had a TGI of 18.1 µM.

Take `COc1ccc(N2NC(c3ccccc3)(c3ccccc3)C(C)C2=O)cc1` (centres undefined): the TGI is over 100 µM.

`O=C(c1ccccc1)c1c(C(F)(F)F)n([O-])c2ccc(C(F)(F)F)cc2[n+]1=O`: the GI50 is 1.72 µM and the TGI was determined as 3.19 µM.

`CSc1scc2c1/C(=N/NC(N)=O)CCC2` displayed a TGI of over 100 µM.

Compound `Cc1cn(S(=O)(=O)c2ccccc2)c2c(OCc3ccccc3)cc(NS(C)(=O)=O)cc12` had a TGI of over 100 µM.

`O=[N+]([O-])C(Cl)=C/C(=C(\Cl)SCc1ccccc1)[N+](=O)[O-]` displayed a TGI of 97.2 µM.

On to `CC(=O)c1cc(O)c2ccccc2c1O`, for which the GI50 was 42.5 µM and the TGI is over 100 µM.
